According to the supplement of paper PMC4967469:
Lines with a small IC50 respond at low doses; a limit (>, <) means that the fit lies beyond the doses tested. AUC is the area under the same curve over the 256-fold range up to the top dose, as a fraction; values near 1 show little effect. A top dose marked as inferred was calculated from the reported fits.

Compound: CCOc1cc2ncc(C#N)c(Nc3ccc(F)c(Cl)c3)c2cc1NC(=O)/C=C/CN(C)C [EKB-569]
Assay: Viability of human cancer cell lines after 72 h of drug (GDSC screen)
Conditions: top dose inferred
Method: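 Human cancer cell lines in 384-well plates, medium with 10% serum, drug for 72 h over a 256-fold dose range (nine 2-fold or five 4-fold steps up to the top dose). Adherent lines were fixed and stained with the nucleic acid dye Syto60, suspension lines read with resazurin; signal relative to control wells, capped at 0 and 100%. One two-parameter sigmoid per drug and line, fitted in a mixed model over all curves with the slope shared within a line.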

| Cell Line | AUC | IC50 [nM] |
| --- | --- | --- |
| BB49-HNC (head and neck, adherent, top dose 2.5 µM) | 0.97 | > 2500 |
| BB65-RCC (kidney, adherent, top dose 2.5 µM) | 0.938 | > 2500 |
| BC-1 (B-cell lymphoma, suspension, top dose 2.5 µM) | 0.761 | 765 |
| BC-3 (B-cell lymphoma, suspension, top dose 2.5 µM) | 0.832 | 1370 |
| BCPAP (thyroid, adherent, top dose 2.5 µM) | 0.924 | > 2500 |
| BE2-M17 (neuroblastoma, adherent, top dose 2.5 µM) | 0.981 | > 2500 |
| BE-13 (lymphoblastic leukaemia, suspension, top dose 2.5 µM) | 0.724 | 643 |
| BEN (non-small cell lung carcinoma, adherent, top dose 2.5 µM) | 0.983 | > 2500 |
| BFTC-905 (bladder, adherent, top dose 2.5 µM) | 0.966 | > 2500 |
| BFTC-909 (kidney, adherent, top dose 2.5 µM) | 0.987 | > 2500 |
| BHT-101 (thyroid, adherent, top dose 2.5 µM) | 0.981 | > 2500 |
| BHY (head and neck, adherent, top dose 2.5 µM) | 0.673 | 476 |
| BICR10 (head and neck, adherent, top dose 2.5 µM) | 0.958 | > 2500 |
| BICR22 (head and neck, adherent, top dose 2.5 µM) | 0.981 | > 2500 |
| BICR31 (head and neck, adherent, top dose 2.5 µM) | 0.843 | 1800 |
| BICR78 (head and neck, adherent, top dose 2.5 µM) | 0.933 | > 2500 |
| BL-41 (Burkitt lymphoma, suspension, top dose 2.5 µM) | 0.656 | 379 |

| Cell Line | AUC | IC50 [nM] |
| --- | --- | --- |
| BPH-1 (prostate, adherent, top dose 2.5 µM) | 0.208 | 19.2 |
| BT-20 (breast, adherent, top dose 2.5 µM) | 0.893 | > 2500 |
| BT-474 (breast, adherent, top dose 2.5 µM) | 0.424 | 94.3 |
| BT-483 (breast, adherent, top dose 20 µM) | 0.926 | > 20000 |
| BV-173 (chronic myeloid leukaemia, suspension, top dose 2.5 µM) | 0.791 | 982 |
| Becker (glioma, adherent, top dose 2.5 µM) | 0.929 | > 2500 |
| BxPC-3 (pancreas, adherent, top dose 2.5 µM) | 0.963 | > 2500 |
| C2BBe1 (large intestine, adherent, top dose 2.5 µM) | 0.776 | 1140 |
| C3A (liver, adherent, top dose 2.5 µM) | 0.988 | > 2500 |
| C32 (melanoma, adherent, top dose 2.5 µM) | 0.986 | > 2500 |
| C-4-I (cervix, adherent, top dose 2.5 µM) | 0.967 | > 2500 |
| C-33-A (cervix, adherent, top dose 2.5 µM) | 0.8 | 1220 |
| CA46 (Burkitt lymphoma, suspension, top dose 2.5 µM) | 0.778 | 1090 |
| CADO-ES1 (Ewing sarcoma, suspension, top dose 2.5 µM) | 0.874 | > 2500 |
| CAKI-1 (kidney, adherent, top dose 2.5 µM) | 0.722 | 926 |
| CAL-12T (non-small cell lung carcinoma, adherent, top dose 2.5 µM) | 0.577 | 261 |
| CAL-27 (head and neck, adherent, top dose 2.5 µM) | 0.619 | 334 |
